Reference: the supplement of paper PMC12217912
Some of the results follow. The full chains were built here from the parent and the listed change. Values near 0.05 are background.

B1: TEV protease; numbered along this chain (parent)
chain: MGESLFKGPRDYNPISSSICHLTNESDGHTTSLYGIGFGPFIITNKHLFRRNNGTLVVQSLHGVFKVKDTTTLQQHLVDGRDMIIIRMPKDFPPFPQKLKFREPQREERICLVTTNFQTKSMSSMVSDTSCTFPSGDGIFWKHWIQTKDGQCGSPLVSTRDGFIVGIHSASNFTNTNNYFTSVPKNFMELLTNQEAQQWVSGWRLNADSVLWGGHKVFMVKPEEPFQPVKEATQL

Variants of: B1
Assay: raw area under fraction-flipped curve 0-4 h after induction (AUC4h, not background-subtracted), DNA-recorder readout of cleavage of the substrate (dimensionless); higher = more cleavage of the substrate by the protease variant
Conditions: temperature: 34 °C; time window: 0-4 h after rhamnose induction
Method: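 In vivo DNA recorder in E. coli TOP10(DE3) ΔrhaA at 34 °C. Each TEVp single-site mutant (parent TEVp 0) is paired with a single-site variant of the 7-mer TEVs (canonical ENLYFQ|S). The substrate sits between flexible linkers in a Bxb1-sfGFP-TEVs-SsrA fusion, so cleavage stabilises Bxb1 and speeds flipping of a recombination array, read by NGS. The value is the raw area under the fraction-flipped curve over 0-4 h after rhamnose induction (AUC4h), with ≥20 reads per time point. It is not background-subtracted; inactive controls average about 0.047.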
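Also: Bxb1 expression induced with 0.2% (w/v) L-rhamnose at OD600 near 0.5, cultures sampled hourly, flipped fraction per protease–substrate barcode pair counted by paired-end Illumina sequencing.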

Row | Variant | area with substrate ENLYAQS | area with substrate ENLYCQS | area with substrate ENLYDQS | area with substrate ENLYEQS | area with substrate ENLYGQS | area with substrate ENLYHQS | area with substrate ENLYIQS | area with substrate ENLYKQS | area with substrate ENLYLQS | area with substrate ENLYMQS | area with substrate ENLYNQS | area with substrate ENLYPQS | area with substrate ENLYRQS | area with substrate ENLYSQS | area with substrate ENLYTQS | area with substrate ENLYVQS | area with substrate ENLYWQS | area with substrate ENLYYQS | area with substrate ENLYQQS
1 | F49M | 0.0605 | 0.0745 | 0.0576 | 0.0726 | 0.0537 | 0.0615 | 0.0634 | 0.0617 | 0.057 | 0.0446 | 0.0285 | 0.0544 | 0.0621 | 0.0587 | 0.0652 | 0.0816 | 0.0603 | 0.0663 | 
2 | R102H | 0.0499 | 0.0558 | 0.0527 | 0.0566 | 0.0576 | 0.0571 |  | 0.0457 |  | 0.0616 | 0.0579 | 0.0506 | 0.0496 | 0.0546 | 0.0494 | 0.0739 | 0.062 |  | 0.0523
3 | L191Y | 0.0533 |  | 0.0543 | 0.0712 | 0.0729 | 0.0693 |  | 0.0654 |  |  | 0.0448 | 0.0682 |  | 0.0593 | 0.0699 | 0.0704 |  | 0.0645 | 0.0621
4 | L22P | 0.0264 | 0.0532 | 0.0413 | 0.0441 | 0.0469 | 0.0392 | 0.0538 | 0.0429 |  | 0.0434 | 0.0423 | 0.0538 | 0.0505 | 0.0368 | 0.0345 | 0.0225 | 0.0329 |  | 0.0374
5 | K46A | 0.0952 | 0.127 | 0.0593 | 0.0779 | 0.0686 | 0.072 |  | 0.052 | 0.0858 | 0.0648 | 0.0808 | 0.0705 | 0.0669 |  | 0.113 | 0.143 |  |  | 0.0795
6 | W199E | 0.0604 | 0.069 | 0.0708 | 0.0596 | 0.0644 | 0.0571 | 0.0725 | 0.0608 |  | 0.063 | 0.0706 | 0.0483 | 0.0573 |  | 0.0695 |  |  |  | 0.0657
7 | W199N | 0.0581 |  |  | 0.0623 | 0.0569 | 0.0571 | 0.0624 | 0.0607 | 0.0724 | 0.0569 |  | 0.069 | 0.058 |  | 0.0461 | 0.0675 | 0.0579 | 0.0598 | 
8 | S127E | 0.0541 |  | 0.0831 | 0.0749 | 0.0738 | 0.0586 | 0.117 | 0.0655 | 0.0852 | 0.0722 | 0.0595 | 0.0685 | 0.0618 | 0.0645 | 0.0784 | 0.0067 | 0.0757 |  | 0.0722
9 | K221F | 0.0773 | 0.113 |  | 0.0527 | 0.0632 | 0.0583 | 0.0979 | 0.0594 |  | 0.0705 | 0.0673 | 0.085 | 0.0423 | 0.0606 | 0.0735 | 0.101 | 0.0651 | 0.0664 | 0.0546
10 | Y12L | 0.0762 |  |  | 0.0605 | 0.0691 | 0.0574 | 0.124 | 0.0485 |  | 0.0981 | 0.0761 | 0.103 | 0.051 | 0.0644 |  | 0.109 | 0.0902 |  | 
11 | V220M | 0.0826 | 0.076 | 0.0625 | 0.0586 | 0.0714 | 0.0779 | 0.123 |  |  | 0.0701 | 0.0517 | 0.0752 | 0.0582 | 0.0756 |  | 0.141 | 0.0668 | 0.0585 | 0.0548
12 | V113G | 0.0817 |  | 0.05 | 0.0795 | 0.0408 |  |  |  |  | 0.0768 |  |  | 0.0654 |  | 0.0751 |  | 0.0644 |  | 
13 | V183H | 0.0639 |  | 0.0528 | 0.0549 | 0.0553 | 0.0626 | 0.0668 | 0.0511 | 0.0738 | 0.0616 | 0.0509 | 0.0548 | 0.04 | 0.0599 |  | 0.103 | 0.0584 | 0.0331 | 
14 | F226M | 0.0857 | 0.116 |  | 0.0708 | 0.0772 | 0.0609 | 0.108 | 0.0585 |  | 0.0728 | 0.0651 | 0.0718 | 0.0654 |  | 0.0528 | 0.124 | 0.0796 |  | 0.0671
15 | S121H | 0.0827 |  | 0.0701 | 0.0668 | 0.0649 | 0.0728 | 0.145 | 0.0379 | 0.0792 | 0.0959 | 0.0723 | 0.0752 | 0.0528 | 0.0678 | 0.0866 | 0.133 | 0.0908 |  | 0.0668
16 | K98C | 0.0766 | 0.074 | 0.0626 | 0.0057 | 0.0696 | 0.0739 | 0.102 | 0.0539 | 0.0926 |  | 0.065 | 0.061 | 0.062 | 0.0781 |  | 0.13 | 0.0846 | 0.0558 | 0.0715
17 | V78P | 0.0689 |  | 0.0639 |  | 0.0657 | 0.0611 | 0.073 | 0.0629 |  | 0.0688 | 0.0606 | 0.0522 | 0.0451 |  |  | 0.0875 | 0.0531 | 0.0747 | 0.05
18 | Q75R | 0.0661 | 0.0645 | 0.0644 | 0.0624 | 0.0575 |  | 0.0585 | 0.0576 |  | 0.0508 | 0.0463 | 0.0486 | 0.0641 | 0.0561 | 0.0722 | 0.048 | 0.0532 | 0.0521 | 0.0596
19 | V126Y | 0.0764 | 0.101 | 0.0565 | 0.0708 | 0.0702 | 0.0793 | 0.132 | 0.0349 |  | 0.0682 | 0.0655 | 0.0775 | 0.0594 | 0.089 | 0.0752 | 0.0887 | 0.0943 | 0.0599 | 0.0643
20 | L156Q | 0.0495 | 0.0581 | 0.0627 | 0.0613 | 0.0589 | 0.0542 | 0.0721 | 0.0213 |  | 0.0595 | 0.0553 | 0.0452 | 0.0555 |  |  |  | 0.0591 | 0.0504 | 0.0531
21 | H21Q | 0.0705 | 0.0934 | 0.0616 | 0.0676 | 0.0631 | 0.0749 | 0.113 | 0.0601 |  | 0.0944 | 0.0633 | 0.0715 | 0.0512 | 0.0673 | 0.0789 | 0.111 | 0.0723 | 0.0787 | 0.0656
22 | L73I | 0.0917 |  | 0.059 | 0.0748 | 0.071 | 0.0722 | 0.114 | 0.0639 | 0.11 |  | 0.0752 | 0.0675 | 0.0719 | 0.0847 | 0.107 | 0.15 | 0.0758 | 0.0979 | 0.0761
